Laboratory results reported in PubChem BioAssay AID1508642 (National Center for Advancing Translational Sciences (NCATS), 2021).
Screen size: about 43,000 compounds; about 200 (0.47%) were called active. Another 12% or so got no clear call; they are omitted. The call rests on the fitted dose curve; in most records, active means well fitted cell-killing curve with a large enough effect; inconclusive means small, poorly fitted or top-dose-only effect, or effect the other way; inactive means flat fitted curve, though single readings scatter. The list shows a part of the results.

assay: Cell viability qHTS assay in S16 Pmp22-F2sN cells; conditions: S16 Pmp22-F2sN Schwann cells viability, CellTiter-Glo, 24 h; series mostly up to 57.5 µM; activity change, negative = cytotoxicity: at the top concentration; further: nearly all actives have a fitted effect of over 65% in size
Outline: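 Used to flag compounds lowering reporter output through toxicity, this quantitative HTS measures ATP-based CellTiter-Glo luminescence in S16 Pmp22-F2sN Schwann cells after 24 h compound exposure at 37C.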
On the % scale 0 is the no-effect control and ±100 the full control effect.

| Compound | activity change, negative = cytotoxicity |
| --- | --- |
| COc1ccc(Nc2oc(/C=C/c3ccccc3OC)nc2C#N)cc1 | inactive: 1.37% |
| O=C(Nc1cccc(C(=O)OCc2cc(=O)n3nc(C4CC4)sc3n2)c1)c1cccc(Cl)c1 | inactive: 3.86% |
| O=C(CSc1nc2c([nH]c3ccccc32)c(=O)n1-c1ccccc1F)Nc1cccc(C(F)(F)F)c1 | inactive: -15.8% |
| O=C(CCCN1C(=O)c2cccnc2Oc2ccc(Cl)cc21)NCc1ccc(F)cc1 | inactive: 5.79% |
| CN1CCN(CCNC(=O)c2cnn(-c3ccc(F)cc3)c2C2CCN(C(=O)OC(C)(C)C)CC2)CC1 | inactive: 4.39% |
| Cc1ccc(N2CC(NC(=O)c3cccs3)CC2=O)cc1 (stereo not drawn) | inactive: 7.17% |
| CCOc1ccc(-n2cc(-c3ccccc3)c3c(NC4CCCC4)ncnc32)cc1 | inactive: -1.62% |
| O=C(CN1C(=O)C2(SCC(=O)N2c2ccc(F)cc2)c2ccccc21)NC1CCCCC1 (stereo not drawn) | inactive: 5.69% |
| Cc1ccc2c(c1)C(=O)OC(C(=O)Nc1ccccc1C(=O)O)C2 (stereo not drawn) | inactive: -7.94% |
| CC1=C(c2ccc(C)c(C)c2)S(=O)(=O)N(Cc2ccc(C(=O)Nc3cc(F)ccc3F)cc2)C1=O | inactive: -2.8% |
| Cc1ccc(N2C(=O)CSC23C(=O)N(CC(=O)NCc2ccccc2)c2ccccc23)cc1 (stereo not drawn) | inactive: -17% |
| COc1ccc(NC(=O)c2cc(-c3ccccc3F)no2)cc1 | inactive: -1.81% |
| Cc1cccc(Nc2sc(C(=O)c3ccc(Cl)cc3)c(N)c2C(N)=O)c1 | inactive: 0.867% |
| COc1cccc(CNC(=O)Cn2nc(C)c3sc4ccccc4c3c2=O)c1OC | inactive: 6.17% |
| Cc1nn2c(C)c(C(=O)N3CCN(c4ccc(Cl)cc4)CC3)cnc2c1-c1ccc(F)cc1 | inactive: 9.03% |
| COc1cc2c(cc1OC)n(CC(=O)c1ccc(C)cc1C)c(=O)n1nc(CCn3nc(C)cc3C)nc21 | inactive: -1.17% |
| Cc1ccc2nc(NC(=O)c3ccc(S(=O)(=O)N4CCC(C)CC4)cc3)sc2c1 | inactive: 1.62% |
| Cc1ccccc1CN1C(=O)c2ccccc2Sc2ccc(C(=O)NCCc3ccccc3)cc21 | inactive: -24.7% |
| Cc1cccc(C)c1OCC(=O)N(Cc1ccco1)Cc1ccco1 | inactive: -12.8% |
| C=Cc1ccc(Cn2c(C)c(CNCCc3ccc(OCC)cc3)c(C(=O)O)c2C)cc1 | inactive: 6.88% |
| CCn1cc(C(=O)N2CCN(c3cccc(Cl)c3)CC2)c(=O)c2cc(S(=O)(=O)N3CCC(C)CC3)ccc21 | inactive: 0.844% |
| Cc1ccc2c(=O)cc(CSc3ncn[nH]3)[nH]c2c1C | inactive: -2.57% |
| CCOC(=O)c1c(C)[nH]c(C)c1S(=O)(=O)N1CCC(C(=O)N2CCN(c3ccc(F)cc3)CC2)CC1 | inactive: -2.05% |
| COc1ccc(N2CCN(C(=O)C(C)n3nc(C)c4sc5ccccc5c4c3=O)CC2)cc1 (stereo not drawn) | inactive: 11.7% |

| Compound | activity change, negative = cytotoxicity |
| --- | --- |
| CCOC(=O)c1c(NC(=O)C2c3ccccc3Oc3ccccc32)sc2c1CCC(CC)C2 (stereo not drawn) | inactive: -1.1% |
| CCOC(=O)C(CC)N1CCN(Cc2ccc(F)cc2)C(=O)C1=O (stereo not drawn) | inactive: 11.4% |
| CCn1nc(C)c2c(-c3ccccc3)cc(=O)n(C(C)C(=O)Nc3cc(C)ccc3C)c21 (stereo not drawn) | inactive: 4.7% |
| O=C(Nc1nc2c(F)cccc2s1)c1ccc(S(=O)(=O)N2CCCc3ccccc32)cc1 | inactive: 1.8% |
| COc1ccc(-c2ccc(NS(=O)(=O)c3cc(C)c(C)cc3C)cc2)nn1 | inactive: 6.86% |
| CCS(=O)(=O)NCC(c1ccco1)N1CCN(c2ccc(F)cc2)CC1 (stereo not drawn) | inactive: 9.25% |
| CC(=O)C1=C(c2cccc([N+](=O)[O-])c2)N(C(C)=O)n2c(nnc2-c2ccc(C)cc2)S1 | inactive: 19.7% |
| CCOC(=O)c1c(S(=O)(=O)N2CCCC(C(=O)N3CCN(c4cc(C)ccc4C)CC3)C2)c(C)n(C)c1C (stereo not drawn) | inactive: 3.02% |
| CCc1ccc(NC(=O)Cn2c(=O)n(CCCC(=O)NCc3ccc4c(c3)OCO4)c(=O)c3ccccc32)cc1 | inactive: 17.1% |
| O=S(=O)(c1ccc(Cl)cc1)c1nc(-c2cccs2)oc1SCc1ccccc1F | inactive: -8.81% |
| COc1ccc(-c2nnc(SCCOc3ccccc3C)o2)cc1OC | inactive: 1.91% |
| Cc1ccc(OCC(=O)Nc2nonc2-c2ccc(Br)cc2)cc1C | inactive: 4.73% |
| Cc1cc(C)cc(OCCSc2nc3ccc(NC(=O)COc4ccccc4)cc3s2)c1 | inactive: 12.3% |
| CC(=O)N1CCCc2cc(S(=O)(=O)N3CCCC(C(=O)NC(C)C)C3)ccc21 (stereo not drawn) | inactive: -4.78% |
| Cc1ccc(OCC(=O)Nc2c(C(=O)c3ccc(Cl)cc3)oc3ccccc23)cc1C | inactive: 7.42% |
| CCCCNC(=O)CCc1c(C)nc2cc(-c3ccccc3)nn2c1C | inactive: 0.268% |
| COc1ccc(N2C(=O)C(CC(=O)Nc3ccccc3)N(CCC3=CCCCC3)C2=O)cc1 (stereo not drawn) | inactive: 2.39% |
| Cc1[nH]c2ccccc2c1C1(O)C(=O)N(Cc2ccccc2)c2ccc(Cl)cc21 (stereo not drawn) | inactive: 9.51% |
| COc1ccc(-c2nnc(SC(C)C(=O)O)o2)cc1 (stereo not drawn) | inactive: -0.845% |
| O=C(CN1C(=O)CSc2ccc(S(=O)(=O)N3CCCC3)cc21)NCc1ccccc1Cl | inactive: 1.74% |
| COc1ccc(-n2nc(C(=O)Nc3ccc(C(C)=O)cc3)nc2-c2ccccc2)cc1 | inactive: 19.1% |
| CCOc1ccc(C2c3c(oc4ccc(C)cc4c3=O)C(=O)N2CCCN(C)C)cc1OC (stereo not drawn) | inactive: 0.329% |
| COc1ccc(CN(Cc2ccco2)C(=O)COc2ccccc2OC)cc1 | inactive: 5.72% |
| CCc1ccc2occ(CC(=O)Nc3ccc(OC)c(Cl)c3)c2c1 | inactive: -3.66% |

| Compound | activity change, negative = cytotoxicity |
| --- | --- |
| CCOc1ccc(C(=O)Oc2c(Sc3ccccc3)c(C)nn2C(C)(C)C)cc1OCC | inactive: 4.4% |
| Cc1nc(SCC(=O)Nc2ccc(C)c(Cl)c2)cc(-c2ccccc2)n1 | inactive: 4.01% |
| O=C(Nc1ccccc1Cl)[C@H](CSCc1ccccc1)N1Cc2ccccc2C1=O | inactive: -5.07% |
| O=C(c1ccc2c(c1)CCN2S(=O)(=O)c1ccccc1)N1CCN(c2ccccc2F)CC1 | inactive: 0.969% |
| CC(C)c1ccc(CNC(=O)c2ccc(N3CCCC3)c(NC(=O)NCc3ccccc3)c2)cc1 | inactive: -20.9% |
| CCc1ccccc1-n1cnc2cc(C(=O)NC3CCCCCC3)ccc21 | inactive: 15.1% |
| Cc1ccc(C)c(N2CCN(C(=O)CCS(=O)(=O)c3cc(Br)cc4c3N(C(=O)C3CC3)CC4)CC2)c1 | inactive: -23.1% |
| CCC(=O)N1CCc2cc(CNS(=O)(=O)c3ccc(C(C)C)cc3)ccc21 | inactive: -6.04% |
| COC(=O)c1ccc2c(=O)n(CCCCCC(=O)N3CCN(c4cc(C)ccc4C)CC3)c(=O)[nH]c2c1 | inactive: 10.1% |
| CCOC(=O)c1c(NC(=O)/C=C/c2ccc(OCC)cc2)sc(C(C)=O)c1C | inactive: 1.14% |
| COc1cc2nc(NCCc3ccccc3)n3nc(-c4cccnc4)nc3c2cc1OC | inactive: 0.271% |
| CCCSc1ncc(Cl)c(C(=O)N2CCN(c3cccc(Cl)c3)CC2)n1 | inactive: -0.564% |
| CCOc1ccc(NC(=O)CC2C(=O)N(c3ccc(OC)cc3)C(=O)N2C2CCCCC2)cc1 (stereo not drawn) | inactive: -1.37% |
| COc1ccc(CNC(=O)C(Cc2ccccc2)NS(=O)(=O)c2ccc3c(c2)CCN3C(C)=O)cc1 (stereo not drawn) | inactive: -13.7% |
| Cc1ccc(NC(=O)Nc2cn(C)c(=O)c3ccccc23)c(Cl)c1 | inactive: 20.1% |
| Cc1cccc(N2CCN(C(=O)C3CCN(S(=O)(=O)c4c(C)noc4/C=C/c4ccccc4F)CC3)CC2C)c1 (stereo not drawn) | inactive: 0.154% |
| Cc1ccc2oc(=O)c3cnn(CC(=O)N4CCN(c5ccccc5F)CC4)c3c2c1 | inactive: 16.4% |
| Cc1ccc(C2C=C(c3ccccc3)Nc3nc(NS(=O)(=O)c4ccc(C)cc4)nn32)cc1 (stereo not drawn) | inactive: -1.07% |
| Cc1cc(=O)n(Cc2ccccc2)c2c1c(C)nn2-c1ccccc1 | inactive: 1.82% |
| CCOc1ccc(NC(=O)CC2C(=O)N(c3ccccc3)C(=O)N2C2CCCC2)cc1 (stereo not drawn) | inactive: -8.47% |
| Cc1cccc(N2CCN(C(=O)c3cnn(-c4ccc(F)cc4F)c3C3CCN(C(=O)OC(C)(C)C)CC3)CC2)c1C | inactive: -4.05% |
| Cc1ccc(CNC(=O)Cn2nc(N3CCN(c4ccccc4)CC3)ccc2=O)cc1 | inactive: 9.32% |
| COc1ccc(-n2c(SCC(=O)NCc3ccco3)nc3c([nH]c4ccccc43)c2=O)cc1 | inactive: 15.2% |
| CCOc1ccccc1NC(=O)c1cc2cc3cc(C)ccc3nc2s1 | inactive: 1.31% |

| Compound | activity change, negative = cytotoxicity |
| --- | --- |
| CCCn1c2ccccc2c2cnn(CC(=O)N(CC)c3cc(C)ccc3C)c(=O)c21 | inactive: -6.46% |
| CCCNC(=O)CSc1c2c(nc3ccc(Cl)cc13)CCCC2 | inactive: 16.1% |
| Cc1ccc(NC(=O)CSc2nc3ccccc3c(=O)n2CCC(=O)NC2CCCCC2)cc1C | inactive: -13.1% |
| CCc1cccc(NC(=O)CSc2nc3ccccc3nc2N2CCCCC2)c1 | inactive: 1.19% |
| COc1cccc(NC(=O)c2sc3nc(C)c(C(=O)Nc4ccc(C)cc4C)c(-c4ccco4)c3c2N)c1 | inactive: 6.29% |
| COc1ccc(OCC(=O)Nc2cccc(C(=O)OCc3cc(=O)n4nc(C)sc4n3)c2)cc1 | inactive: 5.47% |
| CNC(=O)CCCN1C(=O)CCn2nc(-c3cn(C)c4ccccc34)cc21 | inactive: 8.18% |
| COCc1cc(C)nc2sc(C(=O)Nc3ccc(C(C)=O)cc3)c(N)c12 | inactive: 0.251% |
| Cc1nc2c3ccccc3nc(NNC(=O)CCC(=O)N3CCN(c4cc(Cl)ccc4C)CC3)n2n1 | inactive: 0.496% |
| Cc1csc2nc(COc3ccc(NC(=O)C(C)C)cc3)cc(=O)n12 | inactive: 8.81% |
| CCc1ccc(NC(=O)C2CCCN2S(=O)(=O)c2ccc3nc(-c4ccccc4)[nH]c3c2)cc1 (stereo not drawn) | inactive: -28.8% |
| CCN(CC)S(=O)(=O)c1ccc2c(c1)c(=O)c(C(=O)NCCc1ccccc1)cn2C | inactive: 1.06% |
| COc1ccc(C2CC(=O)c3cnc4c(-c5ccc(F)cc5)c(C)nn4c3C2)cc1OC (stereo not drawn) | inactive: 5.21% |
| Cc1ccccc1NC(=O)CC1NCCNC1=O (stereo not drawn) | inactive: 1.18% |
| C=CCc1ccccc1OCc1nc2ccc(C)cc2[nH]1 | inactive: -24.5% |
| COc1ccc(-n2ncc(C(=O)N3CCN(C4CCCCC4)CC3)c2C2CCN(C(=O)OC(C)(C)C)CC2)cc1 | inactive: -2.96% |
| CCOC(=O)c1c(NC(=O)CSc2nc(-c3ccc(OC)cc3)cc(C(F)(F)F)n2)sc(C)c1C | inactive: 9.93% |
| Cn1c(=O)n(CC(=O)O)c(=O)c2c1nc1n2CCCN1c1ccc(Cl)cc1 | inactive: -3.06% |
| Cc1ccc(C(=O)NCC(c2cccs2)S(=O)(=O)c2ccccc2)cc1C (stereo not drawn) | inactive: -8.43% |
| CC(C)Nc1nc2c(S(=O)(=O)c3cccc(Cl)c3)nnn2c2ccsc12 | inactive: -6.56% |
| CC(=O)c1cccc(NC(=O)CCn2nc(C)c(S(=O)(=O)N(C)C)c2C)c1 | inactive: -3.98% |
